This is an account of results in PubChem BioAssay (NCI).

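Each compound was tested at five concentrations against cells in 96-well plates for 48 hours. GI50: concentration for 50% inhibition of growth.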 A number of entries come with more than one value. They are shown here; other results are not. The source may hold further records. For some of these results: The tests behind the records often covered other concentration ranges, which the source does not state; a value can be the end of its range. For some of these results: Values that stand side by side are repeated measurements in other runs, samples, wells, individuals or studies. Brackets tell where a record comes from. Letters hold for one entry only.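 TGI is the concentration that stops growth completely.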

Some test systems named below: MDA-MB-435; SF-268 CNS; U251 CNS; BT-549 breast; SW-620 colon; KM12 colon; OVCAR-8 ovarian; HS 578T breast; RPMI-8226 leukemia; UACC-62 melanoma; EKVX NSCLC; 786-0 renal; HCT-116 colon; SN12C renal; K-562 leukemia; MOLT-4 leukemia; MCF7 breast; SF-295 CNS; HOP-62 NSCLC; SR leukemia; HOP-18 NSCLC; IGROV1 ovarian; LOX IMVI melanoma; HOP-92 NSCLC; HL-60(TB) leukemia; NCI/ADR-RES ovarian; UO-31 renal; SF-539 CNS; SNB-75 CNS; CAKI-1 renal; NCI-H522 lung; SNB-78 CNS.

Holding throughout (experiment): DTP human tumour cell line panel, 48 h

Usually TGI stands for the concentration giving total growth inhibition. Read a low TGI as more potent growth arrest. Regarding `CCCCCCCCCC[C@H](O)[C@H]1CC[C@@H]([C@@H](O)CC[C@H](O)[C@@H]2CCC(CCCCCCC[C@@H](O)CC3=C[C@H](C)OC3=O)O2)O1` (some centres not stated), the TGI in the test with MDA-MB-435 is 3.17 µM and 45.7 µM; in the test on SF-268 CNS it was 5.34 µM and 86.6 µM; in the test on U251 CNS, 5.34 µM and > 100 µM; with BT-549 breast it was 1.92 µM and 22.1 µM; in the test with SW-620 colon, 5.59 µM and > 100 µM; in the test with KM12 colon, 3.24 µM and 47.9 µM. Besides, the TGI with OVCAR-8 ovarian was 3.99 µM and > 100 µM.

Regarding `NC1(C(=O)N[C@@H](CCO)c2ccc(Cl)cc2)CCN(c2ncnc3[nH]ccc23)CC1`, the concentration for total growth inhibition (TGI) in the test on HS 578T breast is 1.21 µM [sample A, mean of 2 tests] and 18.2 µM [sample B, 1 test].

For the molecule `CN(C)c1ccc(/C=c2/c3cc(O)ccc3n3c2cc(-c2ccccc2)[n+]3C)cc1`, the TGI was 1.97 µM and > 100 µM in the test with RPMI-8226 leukemia; 2.7 µM and > 100 µM with UACC-62 melanoma; 7.21 µM and > 100 µM in the test on EKVX NSCLC; 3.92 µM and > 100 µM with 786-0 renal; 3.65 µM and > 100 µM with HCT-116 colon; 8.79 µM and > 100 µM with SW-620 colon. Besides, the TGI in the test with SN12C renal is 1.58 µM and > 100 µM; with K-562 leukemia, 4.19 µM and > 100 µM.

As to `CCC(C)C1NC(=O)C(NC(=O)C(CC(C)C)N(C)C(=O)[C@@H]2CC(O)CN2C(=O)[C@H](C)O)C(C)OC(=O)[C@H](Cc2ccc(OC)cc2)N(C)C(=O)[C@@H]2CCCN2C(=O)[C@H](CC(C)C)NC(=O)C(C)C(=O)[C@H](C(C)C)OC(=O)CC1O` (some centres not stated), the TGI with MOLT-4 leukemia was 1.22 µM and 95.5 nM; in the test on MCF7 breast it was 1.13 µM and > 100 µM.

What is called GI50 is the concentration that inhibits growth by half. As to `Cc1cnc(-c2ccc(-c3ccc(NC(=O)Nc4c(F)cc(F)cc4F)cc3F)c3c2C(=O)NC3)[nH]1`, the GI50 was 2.41 µM [sample A, 1 test] and 115 nM [sample B, mean of 2 tests] with SF-295 CNS; 54.3 nM [sample A, 1 test] and 1.82 µM [sample B, mean of 2 tests] in the test on HOP-62 NSCLC. Moreover, in the test on SR leukemia, the TGI was 578 nM [sample A, 1 test] and > 100 µM [sample B, 1 test].

Turning to `CC1[C@@H]2CC=C3[C@H]4CCC5Cc6nc7c(nc6C[C@@]5(C)C4CC(=O)[C@]32CO[C@]12OC(C)(C)CC2O)CC1CC[C@@H]2C3=C[C@H]4O[C@@]5(O[C@@](C)(CO)C[C@@H]5O)C(C)[C@@]4(O)[C@]3(C)[C@@H](O)CC2[C@]1(C)C7` (some centres not stated), the GI50 was 72.4 nM and 2.93 µM in the test with HOP-18 NSCLC; 69.5 nM and 1.57 µM in the test with NCI/ADR-RES ovarian; 0.615 nM and 16.5 nM in the test with UO-31 renal; 1.54 nM and 30.2 nM in the test with CAKI-1 renal; 59.6 nM and 1.23 µM with OVCAR-8 ovarian. For the same molecule, the TGI is 215 nM and > 3.65 µM with IGROV1 ovarian; 811 nM [1 test] and 20.5 nM [mean of 6 tests] in the test with LOX IMVI melanoma; 15.8 nM and 415 nM in the test with HOP-92 NSCLC; 44.8 nM and 3.2 nM in the test with HL-60(TB) leukemia; 5.72 nM and 75.2 nM in the test with UO-31 renal; 1.64 nM and 24.2 nM in the test with SF-539 CNS. In addition, the TGI was 2.06 nM and 42.5 nM in the test on SNB-75 CNS; 124 nM and > 3.65 µM in the test with CAKI-1 renal; 9.91 nM and 141 nM with NCI-H522 lung; 59 nM and 2.11 µM in the test on SNB-78 CNS; 437 nM [1 test] and 37.9 nM [mean of 4 tests] in the test on MCF7 breast.
